Data published in PubChem BioAssay AID1347073 (National Center for Advancing Translational Sciences (NCATS), 2019).
Hit rate of the full screen: of about 45,000 compounds, about 200 (0.44%) were called active. Inconclusive results (about 7%) are left out. The call rests on the fitted dose curve; in most records, active means well fitted activation curve with a large enough effect; inconclusive means small, poorly fitted or top-dose-only effect; inactive means no such curve, though single readings can be large or run the other way. The list shows a part of the results.

Experiment: qHTS of TDP-43 Inhibitors: NCGC Sytravon Library Screen; further: nearly all actives have a fitted effect of over 55% in size; on growth rescue (activation): 0% is about no effect
Settings: yeast TDP-43 toxicity rescue, BacTiter-Glo growth, 24 h; series mostly up to 46.1 µM; growth rescue (activation): at the top concentration
How it was run: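 TDP-43-expressing yeast, pregrown in raffinose, seeded at OD600 0.02 in galactose medium with compound for 24 hr at 30 deg C. Growth read by BacTiter-Glo luminescence, so rescue of toxicity appears as activation.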
Potency means the concentration at half of the fitted maximal effect.

| Structure (SMILES) | growth rescue (activation) | Potency |
| --- | --- | --- |
| Cc1ccccc1-c1cnc(C(O)c2ccc(Cl)c(F)c2)[nH]1 (stereo unspecified) | inactive: 3.49% | – |
| CC1S/C(=N/N=C/c2cccs2)NC1=O (stereo unspecified) | inactive: 7.5% | – |
| COc1ccccc1C1c2c(C)nn(-c3ccccc3)c2NC(=O)C1NC(=O)c1ccccc1 (stereo unspecified) | inactive: 18.6% | – |
| O=C(CN(C(=O)c1csnn1)c1cccc(F)c1)NCc1ccc2c(c1)OCO2 | inactive: -0.88% | – |
| COc1cc(/C=N/NC(=O)c2ccccn2)ccc1OC(=O)c1ccc(Br)cc1 | inactive: 12.7% | – |
| CC1(C)Cc2c(cnn2-c2ccc(F)cc2)C(NC(=O)CCn2cncn2)C1 (stereo unspecified) | inactive: 13% | – |
| O=C(N/N=C/c1coc2ccccc2c1=O)c1ccc(Cl)cc1 | inactive: 3.33% | – |
| O=C(COCC(=O)NCc1ccccc1)NCc1ccccc1 | inactive: 6.46% | – |
| N#C/C(=C/c1ccc(CNS(=O)(=O)c2ccccc2)o1)C(=O)NCc1ccccc1 | inactive: 12.1% | – |
| CCOCCCNc1ccc(N2C(=O)C3CCCCC3C2=O)cc1[N+](=O)[O-] (stereo unspecified) | inactive: 21.9% | – |
| COC(=O)c1ccc(N=NN2CCOCC2)cc1 | inactive: 24.8% | – |
| O=C(CNC(=O)C1COc2ccccc2O1)Nc1ccc(F)c(F)c1 (stereo unspecified) | inactive: 18.9% | – |
| O=C(Nc1ccc2c(c1)OCO2)c1cc(C2CCCCN2C(=O)c2ccccc2)on1 (stereo unspecified) | inactive: 11.3% | – |
| COc1ccc(CCNC(=O)Cn2nnc3ccccc3c2=O)cc1 | inactive: -16% | – |
| CC1CN(c2nc(-c3ccccc3)nnc2-c2ccccc2)CC(C)O1 (stereo unspecified) | – | active: 12.6 µM |
| NC(=S)N/N=C\c1c(OCc2ccccc2Cl)ccc2ccccc12 | inactive: -1.68% | – |
| CSc1nc2c(c(C(F)(F)F)n1)CC(C)CC2 (stereo unspecified) | inactive: -28.2% | – |
| COc1ccccc1C(=O)N1CCN(C(=O)Cc2ccccc2)CC1 | inactive: 4.72% | – |
| O=C(CCc1ccccc1)N1CCN(c2ccc(F)cc2)CC1 | inactive: 7.56% | – |
| Nc1nc(SCC(=O)c2c(N)n(Cc3ccccc3)c(=O)[nH]c2=O)n[nH]1 | inactive: 24.6% | – |
| COc1cc2cc(C#N)c(SCC(=O)Nc3cc(C)on3)nc2cc1OC | inactive: -12.6% | – |
| CCOc1ccc(N2CC(C(=O)NC3CCSC3=O)CC2=O)cc1 (stereo unspecified) | inactive: 11% | – |
| Cc1ccc(N2CC(C(=O)Nc3ccc(Cl)cc3Cl)CC2=O)cc1 (stereo unspecified) | inactive: 9.15% | – |
| N#CCN1CCN(CC(=O)c2ccc(Br)cc2)CC1 | inactive: -3.53% | – |

| Structure (SMILES) | growth rescue (activation) | Potency |
| --- | --- | --- |
| O=c1oc2cc(O)c(Cl)cc2c2ccccc12 | inactive: 28.1% | – |
| COc1ccc(/C=N/N2CCN(C3c4ccccc4-c4ccccc43)CC2)cc1O | inactive: 13% | – |
| CCCCCNC(=O)c1ccc2c(=O)n(CCCOCC)c(=S)[nH]c2c1 | inactive: 17.5% | – |
| COc1ccc(-c2ccc(C(=O)Nc3ccc(C(C)C)cc3)c3occc23)c(C)c1 | inactive: 3.21% | – |
| CC1(C)CC(=O)C=C(Nc2ccc(C(=O)O)c(O)c2)C1 | inactive: -9.85% | – |
| COc1cc(S(=O)(=O)NC2CCCC2)ccc1-n1cnnn1 | inactive: -0.716% | – |
| O=S(=O)(c1ccc(Cl)cc1)c1cnc2ccccc2n1 | inactive: -3.54% | – |
| COc1cc(Cl)ccc1OC1(C)CCN(Cc2cccn2-c2nccs2)C1 (stereo unspecified) | inactive: 14.4% | – |
| NC(=O)c1sc2nc(-c3cccnc3)ccc2c1N | inactive: -9.55% | – |
| COc1ccc2nc(NC(=O)Nc3ccccc3OC)sc2c1 | inactive: -8.61% | – |
| O=C(O)CCC(=O)N1CCN(Cc2ccc3c(c2)OCO3)CC1 | inactive: 9.26% | – |
| COc1cccc(NC(=O)C2CCCN(c3nnc(-n4c(C)ccc4C)s3)C2)c1 (stereo unspecified) | inactive: 1.49% | – |
| NC(=O)c1ccsc1NC(=O)CCS(=O)(=O)c1ccc(Cl)cc1 | inactive: 38.4% | – |
| Cn1ncc2c(NNC(=O)c3ccccc3Cl)ncnc21 | inactive: 2.48% | – |
| Cc1ccc(C(=O)N2CCN(Cc3ccc4c(c3)OCO4)CC2)cc1[N+](=O)[O-] | inactive: 12.8% | – |
| COc1ccc(CNc2nc(-c3ccco3)nn2C(=O)c2ccccc2Cl)cc1 | inactive: 13.9% | – |
| CCCN1C(=O)c2ccccc2NC1c1ccc(Br)cc1 (stereo unspecified) | inactive: -11.2% | – |
| COc1cc(OC)cc(-c2nnc(SCC(=O)Nc3cccc(C(=O)O)c3)s2)c1 | inactive: 4.75% | – |
| CCOC(=O)C1CCN(C(=O)c2ccc(CNS(=O)(=O)c3ccc(C)cc3)cc2)CC1 | inactive: 1.72% | – |
| COc1cccc(C(=O)N2CCC(C(=O)N3CCN(C)CC3)CC2)c1 | inactive: -6.64% | – |
| COc1ccc(/C=C2\N=C(c3ccccc3)N(c3ccc(C(=O)O)cc3)C2=O)cc1OC | inactive: 28.9% | – |
| N#CCOc1ccccc1/C=C/c1nc2ccccc2c(=O)[nH]1 | inactive: -23.1% | – |
| COCCNC(=O)Cc1ccc(F)cc1 | inactive: 6.43% | – |
| C=CCNCC(O)COc1ccc(C(C)=O)cc1OC (stereo unspecified) | inactive: -7.15% | – |

| Structure (SMILES) | growth rescue (activation) | Potency |
| --- | --- | --- |
| COc1ccc(NC(=O)/C(C#N)=C/c2ccc(Sc3nncn3C)c([N+](=O)[O-])c2)cc1 | inactive: -17.8% | – |
| CCc1c(C)sc(NC(NC(C)=O)(C(=O)OC)C(F)(F)F)c1C#N (stereo unspecified) | inactive: -12.2% | – |
| Cc1ccc(S(=O)(=O)NC(C)c2ccccc2)cc1[N+](=O)[O-] (stereo unspecified) | inactive: 6.68% | – |
| O=C(COc1ccc(/C=N/NC(=O)c2ccccc2Br)cc1)Nc1ccccc1 | inactive: 4.49% | – |
| COc1cccc(NC(=O)Cc2nnc(SCC(=O)NC3=NCCS3)n2C)c1 | inactive: -16.4% | – |
| CCN(C(=O)COC(=O)c1ccccc1NC(=O)c1ccco1)C1CCS(=O)(=O)C1 (stereo unspecified) | inactive: -6.59% | – |
| Cc1cc(N/N=C/c2ccc(Cl)cc2)nc(NCc2ccccc2)n1 | inactive: 15.5% | – |
| Cc1cccc(C(=O)Nc2cccnc2Cl)c1 | inactive: 12.4% | – |
| COc1ncc(-c2cccc3nccn23)c(OC)n1 | inactive: -2.15% | – |
| CNC(=O)c1cccc(NC(=O)C(C)c2ccc3cc(OC)ccc3c2)c1 (stereo unspecified) | inactive: 14.4% | – |
| CN(C(=O)COC(=O)c1ccc2ccccc2n1)C1CCCCC1 | inactive: -2.96% | – |
| c1ccc(CNc2c3c(nc4ncnn24)CCC3)cc1 | inactive: 17.9% | – |
| CCCCC(=O)Nc1ccc(NC(=S)NC(=O)CC)cc1OC | inactive: -10.6% | – |
| NC(=O)C1CCN(C(=O)c2ccc3c(c2)S(=O)(=O)c2ccccc2C3=O)CC1 | inactive: 3.13% | – |
| CCCn1c(O)c(CN2CCCCC2)c(C)c(C#N)c1=O | inactive: 8.08% | – |
| CCC1CCCCN1S(=O)(=O)c1ccc(NC(=O)c2ccncc2)cc1 (stereo unspecified) | inactive: 13.4% | – |
| CCN(CC)C(CNC(=O)CSc1nnnn1-c1c(C)cccc1C)c1ccco1 (stereo unspecified) | inactive: 24.4% | – |
| NS(=O)(=O)c1ccc(NC(=O)C(=O)NCCC(=O)O)cc1 | inactive: 6.85% | – |
| Cc1cccc(C(=O)NC2CCN(C(=O)Nc3ccc(F)cc3)CC2)c1 | inactive: -7.3% | – |
| O=C(Nc1nc(-c2ccc(Cl)cc2)cs1)NC1CCCCC1 | inactive: -0.906% | – |
| FC(F)(F)c1cnc(NNC(=S)Nc2ccc(Cl)cc2)c(Cl)c1 | inactive: 22.5% | – |
| NC(=O)C1CCN(C(=O)CNC(=O)c2ccc(F)cc2)CC1 | inactive: 4.46% | – |
| COc1cc(CC(=O)N/N=C/c2ccc([N+](=O)[O-])cc2)c([N+](=O)[O-])cc1OC | inactive: -32% | – |
